Assay results as given in article PMC10726135.
The other results are listed elsewhere or left out. At the low end of the ranking the order means little. The protein was read in a cell extract, so binding may be indirect.

target: T1, HNF4alpha8 (COS-7 nuclear extract) (UniProt P41235-5); assay: protein-binding microarray; conditions: COS-7 nuclear extract on double-stranded Agilent 4x180k PBM; binding buffer, salt, pH and temperature not given; high values mean tight binding; double strand, one strand shown; sequences stand for … in …GCCTAGGGAGATTAGAGTATCGGTCGA
T1 sequence: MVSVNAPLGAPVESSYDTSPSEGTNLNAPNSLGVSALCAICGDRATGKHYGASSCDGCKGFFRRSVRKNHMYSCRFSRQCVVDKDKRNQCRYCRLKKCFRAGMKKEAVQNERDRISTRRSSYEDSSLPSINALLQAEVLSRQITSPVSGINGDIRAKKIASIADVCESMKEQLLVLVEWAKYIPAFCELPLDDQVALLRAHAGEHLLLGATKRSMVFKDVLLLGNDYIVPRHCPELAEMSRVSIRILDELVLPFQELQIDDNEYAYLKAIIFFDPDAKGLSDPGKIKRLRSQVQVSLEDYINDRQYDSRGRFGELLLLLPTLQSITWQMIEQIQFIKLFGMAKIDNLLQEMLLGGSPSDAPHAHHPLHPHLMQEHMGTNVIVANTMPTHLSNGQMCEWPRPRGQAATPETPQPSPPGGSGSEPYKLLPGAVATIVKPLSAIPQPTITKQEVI

| Sequence | binding signal (log2 normalized intensity) |
| --- | --- |
| ACGCCCTGCACCCTACGTAAATGCACGGAA | -1.23 |
| AAATTATTACTCCCACCGTGTGTGCACTTT | 3.9 |
| ATTCCTATCGCCCTTCTGTCAAGTCCAAAG | 1.08 |
| TGGGAACCGACCTTTGGTTCCTGAACTCAA | 5.39 |
| TTGCTCAACCCAAAGCATGTCCAGAATCCT | 0.712 |
| GGCCCTGCAGACTTTGCCTCAGTAAATGCA | -0.324 |
| CACACACACACAGCATTCCATTCATTTTAG | -0.802 |
| TTCCCTCATGATTTAGTAAGTTCAAGAAGA | 0.776 |
| CAGGATGGTAGTTGCTGAAGGGCAGGGTTG | 0.636 |
| GTGGGAGAGGGGGACTGCAAGTACGATTGG | -0.682 |
| GTAATCATTTGGGACAAAGTTCATCTGGGC | 4 |
| TGCGTGTTATCTATGGAACATGGACTTTGA | 9.28 |
| GGCAGCAGGGAAGAGCCGGCCGGCGGGGTC | 2.73 |
| TTATCAAGCGTGCACCCCAGGTACGGAGGA | -0.9 |
| ACAGTGGGGAGGGCAGGGTCAGAACCTGCC | -1.16 |
| ATAAGGGGCAGCAAACCTACCTGAACTTTG | 3.58 |
| TGCATTCCCCCACCTACTGTCTCCTAATCA | 2.09 |
| CCAGAAAAGGCCTAAAAGGTTATCTTCCAG | -1.07 |
| AAACAAGTAGCAGTTCAAAAGTTCAAAGAT | 2.19 |
| ATTATTAACTGTAGGCGTATGCTGTACAGA | 0.758 |
| ATAGGGAAAGATAAAAAAGTTCCAGAGACC | -1.42 |
| GATGGGCCAGGCAGGACAGTTTTGTGTGTT | 1.14 |
| GAAGATGCCAGCCCCGAGATAACCCCTCTC | 4.58 |
| CAGGAGGATTCCTGATGCGTTCAAGGAACA | -1.33 |
| AGGGCATGGGCAGCTTTGAAGACTCTCTTT | -1.38 |

| Sequence | binding signal (log2 normalized intensity) |
| --- | --- |
| ATCTTCCTGAGGAGAGCAAAGATCACCTGG | 1.97 |
| GAGGGGGACACAGTTCAGGCCATCACACTC | -1.25 |
| GATAGGCACAATCAGCAAACACAGATAGCA | -1.45 |
| AATGGTGTAGAGGCCAGAGGTCGTGTCTCC | 1.96 |
| TTATCCTTGGGACATTCTCACATTAAAAGA | 0.182 |
| GCAGAGATTCCTGCTGAGTTATCTCTTGAC | -1.19 |
| GGAACATCAGACACAGAGATAAGGAGGTAA | -1.36 |
| TTCCCACCCCATTTCACAGCAACCTCAGAC | 1.92 |
| CGTTCCTGACAGACTGCCATTCCAGAAGTA | -1.32 |
| GCCATCTGCTGCCTCAGTTTCCCCGTCTCT | 1.66 |
| GGAAGGGAGGTGAGTGCTAGCATTGCTCAG | -1.33 |
| TGGCCTCTGCAGACATGGACTCTGGGATCT | 3.74 |
| TTGTACTGCTTCCAAAACATTGTAGAATTA | 0.558 |
| GTGTCATTGTTATTTACGGTGGGCACCTCA | 0.235 |
| CCGACTCCTGGGTGTGAGATAAGGCCGCTG | -1.23 |
| GGTTCTCTCTTCTTCCCCTCCTTCAGGTCA | 2.67 |
| AATGACCCTTGCTTGACCCATTATGGCCAC | 2.1 |
| TCCGGGTATGTTCTTAAGATAAGGACTGTT | 1.04 |
| TCCCAGGATAATGGAGAAGATAAGCAGATC | -1.26 |
| CAAGGTCCCATGCACTGGCCTGGATTTAAA | -1.17 |
| CCGGTTTGTTCCATGCCACAGAATCGCCCC | 3.12 |
| GGAACCAAGAGCAGATTTGTTTGCTCTTTA | 0.915 |
| AGCTGACCCCAAAACCCCCAAAGGTGAGTA | 4.29 |
| GACCAGCTTTTGGAAGGACTTCGAATGGTA | 0.961 |
| CTTCACTGACGAAACTCACATACTGTGGAC | 1.18 |

| Sequence | binding signal (log2 normalized intensity) |
| --- | --- |
| GATGATTGTCCCTTTTCTATCCAGATGATC | 1.62 |
| ACCTCTTATCAAGCGTGCACCCCAGGTACG | 1.3 |
| TAGGAATCTTCAAGGCCTACCTTGGGTTCT | 0.464 |
| CTTGGACTCTGAAGGAATGTAAACTCCAAG | 0.585 |
| ACCTCCCTGGGCATGTCTGCTCCCTGAGTT | 1.06 |
| CCCTCTGATATTGGGTGAGTGTTAGAGCAC | 0.849 |
| GTCCTATGACCCTGCCAAATCCCCCTCTGC | 4.79 |
| ATAGCATGCCACGATGATTAGCTGACTTTA | -1.31 |
| TAGGATCTAGCAAATTTGGGAGGGAAGAGG | -1.25 |
| GGACTTTGTTGTTTGCCTCTGAAAACTTTT | 2.49 |
| GTTGAAGTTCCAGAAGACTACAAATTCCTC | -1.39 |
| AGTGAACTGTCTGCTATGTGTATATGAGTG | 1.34 |
| GGTTCCTCAGAGGACCTGACATTCTCCACT | -1.28 |
| AGTCTGATTCTAGGGCCCATGCCCTTAGCC | 1.31 |
| CCTAGATGAGATAAGGTTCTGATAAAGTAT | 0.675 |
| ACAACATGAGTAAACGAGCTATTTAGATAA | -1.29 |
| AAATACATAGCTGGGATGAGATACCCATTC | -1.26 |
| CATGTGCATTTCACAATAGGGTTCAAACTC | 2.85 |
| TGAGGGGACAAAGTTCGTGGAAAGTGGAAG | 3.11 |
| AAACAGAGGCTGAAATGGTTACAAAGGTCA | 5.42 |
| TTTACAGAACTCTTCGAAGACACAAAGCTT | -1.28 |
| GCTTGGGGTGGGGTTGGAGTCCAGAGTTCA | 4.45 |
| AGTTTAAAGGCGTTTGCTCCCATCCCCCCA | 4.91 |
| TGTGGACTGCTCCAGTGGACATTGGCCCTT | 7 |
| TTTGAAAAGCTGTAGTGAACAAGTCTCCTT | -0.611 |

| Sequence | binding signal (log2 normalized intensity) |
| --- | --- |
| CACCCAAACCATCCCAGGCATCCAGGCCAG | -0.966 |
| AGATTGCTAGCTGAGAGACTTTATCCGTAT | -1.19 |
| ATTAGAGAACATGTACTTTGTACTGCTTAT | 4.99 |
| ACTGCACTGTATCTTATCAGAAACACACCC | -0.00301 |
| GGCCTCTCCACTTGGGTATCAGATAGTCCA | 1.51 |
| AAAGCGGCTCAGGAAACAGCGCTATCGGGG | -1.38 |
| GACTATTTTATTTTCCCCCTTTGAAGTCTG | 3.2 |
| GGGTGTAAGAGTGAACTCTGACCATGCCTA | 3.69 |
| ATAGGTTCTACTCTCCCCAGTTCAAAGGTT | 6.08 |
| AGATCCGAAGTCTAGGACGTTATCAGCAGG | -1.01 |
| CAGAAGCAATCACAAGGAATGCCCTTATCT | 2.11 |
| CTTTGACACAGGCGACCTTCGCTCGGCTCG | 4.27 |
| AAAAGAGTTGCTCAAACCAACATTATTAGC | -1.34 |
| CTGATTTAGCTATTTGACCTTCGGCCTCAA | 8.73 |
| TGGAACCTGTCTGACAGGATGAATTTATTG | -1.24 |
| GAGTCTGTTGCAAGCAATGGAGAGGATTTT | -0.685 |
| AGGATGTGTGCTCGAGGTGGACTTTCCCCC | 6.75 |
| TAGCTTTAAAGACCAAAGATCACAGTGAAG | 1.91 |
| AATGCTGGAGTTAAAGCTTTGAGGAACTAG | -1.31 |
| TACTTATGGTTTGACCCTGCGATAAGTAGA | 2.67 |
| AGTTCCAGAAGACTACAAATTCCTCAATCC | -1.35 |
| GTTAACCTCCTATGATCTTTCATTCCTATT | -0.0945 |
| GAGGGTAGAGGAGCCAGAGGGGCCAGGAAC | -1.36 |
| ATGACCTCTGCACCCTTCCCTGAGTTTCCA | 3.34 |
| CACACCTGGCTATTCAGTTTTTATTTTGTA | 0.51 |

| Sequence | binding signal (log2 normalized intensity) |
| --- | --- |
| CTTAGGCTTTTGCACTTTACTCAGAAAGGT | 2.89 |
| AGTCATCCATCATTCATACATTTGCCTGAA | 0.432 |
| GTGCTTAGTATGTGCTAGGCATTTTATAGT | 1.76 |
| CAAAGGACAGCAGTAGAAAACAGAGAAGCC | -1.4 |
| TAGCCCTGCAGTGTATGACACAGCCACAAA | -1.4 |
| TGGCTTTTGCCCTCAAGGAGTTTTAGATTA | 1.99 |
| TAGGCATGCAAACTTTGTTTAATGATTGCA | 0.0707 |
| TGCTCAGGGAGAAGCAAATATGTGTCCTCT | 1.79 |
| TCACCTCGCTCCCCTCCTGTCAGTTTATTT | 2.3 |
| TGCTCTTTATCAGCACCAAGAACAAACAAA | -1.44 |
| CTGTGAATTCTTAAGCCAAAGTCCAAGTTG | 4.73 |
| GCCGGAAAAAGTGAGGAGCAGCAGAGAGTC | -1.37 |
| TTGTACAAAGGTCCTGTGGGGCCCAGAGCC | -0.13 |
| CCCAACCCTCTCCCACTCCCCTCCTCCAGA | 4.68 |
| ACAGGCCTCCCCCCTTCTGTTTCCAGAAAT | 3.59 |
| TGCACCCCCTTCCCACCTGCTGTCCAACCT | 4.74 |
| GGGTGGTGAAATGGGGGAAGGGCTGGAGAC | -1.39 |
| TAAGTGAAAGTACACAGTGCCTGCTTGCAG | -1.4 |
| TAGAAAGTCAGTGAAGGAGCTGACTAGATT | -1.25 |
| TTACTTGCTGGAGAAAGAGGGGAAGGATGA | -1.41 |
| GAAGGTCGAGGCCAGGGATTAAAGAATTCG | -1.29 |
| CTCTTTTACTGTACTTCTTTAGGACTGCTC | 1.37 |
| TACACCCCTCACTCCCTCCAGCTGTCTTGG | 3.21 |
| TAGAAAGGAGTACACACCATAAGAGGCTCT | -1.36 |
| CTGATTTCAAAGTTCAGTTTGATTACTTGG | 2.51 |

| Sequence | binding signal (log2 normalized intensity) |
| --- | --- |
| ATGCCAGTGGGAAAACAAACTTTCCTCTCT | -1.25 |
| TTGCACTGCTCAGGGTGGGGTCTCGCTGCT | -1.13 |
| AGATAATGCCAGAAAGGTCTAAAAGTAGCT | -1.21 |
| GAGAAACGCACTCGCCTCTCCTGTTCCGGT | -1.03 |
| GTGGAAAGACAAGTTGAAGCCAGATTGTCA | -0.804 |
| TGGCTTCCGTGCCTGCATGGGCTGTCACCT | -1.1 |
| CGTCCGTGCACCCTTCCTCTGCAGCCGCCC | 0.0254 |
| CGATAATTACCTGGTCAGAAGAAACATGCG | -0.8 |
| AACTCAGTGAGGGCTATTGACAAAGACCAG | -1.37 |
| AAAGGAAGGAATTTACTGCAGTCAGGGGTT | -0.376 |
| TATTTTCTTATCTGCCTAGGCATTTGGCTG | -1.3 |
| GATAAGAATTTTGTGCAATTACACAACTTC | 1.04 |
| GGAGAGGGAGAGTGAGTGAGTGTGTGTGTG | 2.35 |
| GTTGACATTTGAACCCAACCGTCCAGAGTC | 3.08 |
| CCTCTAGATAAACCAAGCCTGCAGCACCTT | -1.28 |
| GCACACTGGCAAATGTGAATGGACTCTGCC | 4.29 |
| TGAATAGGTCTTGGAATGTGACGGCAGGTC | 1.25 |
| AAGATAAGATGTACCATTCATGGACAGCCT | -1.38 |
| TCCAGAATTGTGTGGTTATCTGTTGGGGAA | 2.14 |
| ACTCCTGTGCTGGAATGCTTTTCTAGAACC | 0.385 |
